Data reported in PubChem BioAssay AID652104 (National Center for Advancing Translational Sciences (NCATS), 2013).
Out of some 410,000 compounds screened, about 7,200 (1.8%) were called active. The shares of active, inactive and inconclusive entries below differ from those in the screen. The call rests on the fitted dose curve; in most records, active means well fitted activation curve with a large enough effect; inconclusive means small, poorly fitted or top-dose-only effect, or another doubt; inactive means no such curve, though single readings can be large or run the other way. Potencies of inconclusive entries are left out as doubtful fits.

assay: qHTS of TDP-43 Inhibitors; details: TDP-43 expressing yeast growth rescue, BacTiter-Glo, 24 h; growth rescue (activation): at 46.1 µM (top of the series) unless noted; further: nearly all actives have a fitted effect of over 50% in size; on growth rescue (activation): % of control where 0% means no effect
Procedure, shortened: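 Yeast cells expressing TDP-43 under galactose induction are exposed to compounds for 24 hr at 30 deg C. BacTiter-Glo luminescence measures growth, so protective compounds score as activators.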
Potency means the concentration at half of the fitted maximal effect; tags describe the fitted curve by direction and shape.

Structure (SMILES)	growth rescue (activation)	Potency
O=C(CCCCCn1c(=O)[nH]c2ccccc2c1=O)N1CCN(c2ccc(Cl)cc2)CC1	inactive: 6.78%	–
COc1ccc(CC(=O)NCCc2ccc3c(c2)OCO3)cc1OC	–	inconclusive [activator, partial curve]
O=C(CN1CCOc2ccccc21)NCc1ccc(Cl)cc1	–	inconclusive [activator, partial curve]
COc1ccccc1NC(=O)N(CCN1CCCC1)Cc1cc2cc(C)ccc2[nH]c1=O	inactive: -19%	–
O=C(/C=C/Nc1ccc(F)c(Cl)c1)c1ccco1	–	inconclusive [activator, single point]
Cc1ccccc1-c1noc(-c2cccs2)n1	–	inconclusive [activator, full curve]
CC(=O)Nc1cc(-c2cccc(F)c2)cn2c(-c3ccc(F)cc3)cnc12	–	inconclusive [activator, single point]
CCN1C(=O)[C@H]2[C@H]3CN=C(SCc4ccc(OC)cc4)N3[C@@](CC)(C(=O)OC)[C@H]2C1=O	–	inconclusive [activator, partial curve]
Cc1ccc(CNC(=O)c2sc3ncnc(N(C)C4CCCCC4)c3c2C)cc1	–	inconclusive [activator, single point]
CCCc1cc(C(=O)Nc2cc(C)nn2-c2ccccc2)no1	–	inconclusive [activator, partial curve]
S=C(Nc1ccc2nccnc2c1)N1CCCC1	–	inconclusive [activator, full curve, poor fit]
Cc1ccccc1S(=O)(=O)Oc1ccc2ccc(O)cc2c1	–	inconclusive [activator, partial curve]
Cc1nc2c3cc(F)ccc3n(Cc3ccccc3F)c2s1	–	active: 11.2 µM
Fc1ccc(CNC(=S)Nc2ccc(OC(F)F)cc2)cc1	–	inconclusive [activator, partial curve]
COc1ccc(-c2cc(=O)c3c(OC)c(OC)c(OC)c(OC)c3o2)cc1	–	inconclusive [activator, partial curve]
Cn1nc(-c2ccccc2F)c2cc(C(=O)N3CCN(C(=O)c4ccco4)CC3)sc21	–	inconclusive [activator, single point]
COc1cccc(-c2nn(C)c3sc(C(=O)NCc4ccc(C)o4)cc23)c1	–	inconclusive [activator, single point]
CCOC(=O)N/N=C/c1ccc(Oc2ccccc2)cc1	–	active: 17.8 µM
CNC(=S)Nc1cc(C(F)(F)F)ccc1Cl	–	inconclusive [activator, single point]
O=C(C=Cc1ccccc1)Nc1ccccc1	inactive: -20.2%	–
CCOC(=O)N1CCC(Nc2ncnc3c2cnn3-c2ccccc2)CC1	–	inconclusive [activator, single point]
COc1ccc(/C=C/c2cc(=O)c3cc(Cl)ccc3o2)cc1	–	inconclusive [activator, single point]
O=C(NCCc1ccc(Cl)cc1)c1nnc(Cc2ccc(Cl)cc2)o1	inactive: 10.7%	–
COc1cccc2cc(C(=O)N3CCCc4ccccc43)oc12	–	inconclusive [activator, partial curve]

Structure (SMILES)	growth rescue (activation)	Potency
COC(=O)[C@@]12CCCCN1[C@H](c1ccc(-c3ccc(C(C)=O)cc3)c(OC)c1)[C@@H]1C(=O)N(C)C(=O)[C@@H]12	–	inconclusive [activator, single point]
CC1CCN(c2csc3ccc(F)cc3c2=O)CC1	inconclusive: -34.8% [activator]	–
Cc1cccc(CSc2ncnc3ccccc23)c1	–	inconclusive [activator, single point]
Cc1ccc2c(c1)-c1c(cnn1CC(=O)N1CCN(c3cc(C)ccc3C)CC1)CO2	–	active: 35.5 µM
CC(C)(C)Cc1c(-c2ccco2)nc2ccc(Cl)cn12	–	active: 11.2 µM
CC1CCN(C(=O)c2cccc(NC(=O)c3cccs3)c2)CC1	–	inconclusive [activator, partial curve]
COc1ccc(-c2nc(CC(=O)O)cs2)cc1	–	inconclusive [activator, partial curve]
CCN(CC)C(=O)c1ccc(-c2cccs2)s1	–	inconclusive [activator, partial curve]
Cc1ccccc1CC1(CO)CCCN(C(=O)c2cc(-c3ccccc3)no2)C1 (stereo unspecified)	–	inconclusive [activator, partial curve]
Cc1nc(-c2ccc(F)cc2)sc1CCNC(=O)c1ccc(OC(C)C)cc1	–	active: 15.8 µM
COc1ccc(/C(N)=N/OC(=O)c2ccco2)cc1	–	active: 17.8 µM
Cc1cc(C)c2c(c1)cc(C)c1nnc(SCC(=O)Nc3ccccc3N3CCOCC3)n12	–	inconclusive [activator, single point]
O=C(Nc1nc(-c2ccc3c(c2)OCO3)cs1)C1CC1	–	inconclusive [activator, full curve]
COc1cc(/C=C/C(=O)OCC(=O)Nc2ccc(C)c(S(=O)(=O)N3CCCCC3)c2)ccc1O	–	inconclusive [activator, single point]
C=CC(=O)N1C/C(=C/c2ccc(Cl)cc2)C(=O)/C(=C\c2ccc(Cl)cc2)C1	–	inconclusive [activator, single point]
COc1ccc(CCNC(=O)c2ccc(Cn3c(=O)c4ccccc4n(Cc4ccc(F)cc4Cl)c3=O)cc2)cc1OC	–	inconclusive [activator, partial curve, poor fit]
Cc1cc(N2CCN(c3ccccc3)CC2)n2cnnc2n1	inactive: 8.35%	–
COc1ccc(-c2cc(C(=O)O)sc2C)cc1	–	active: 22.4 µM
CC(Oc1ccc(-c2ccccc2)cc1)C(=O)N/N=C/c1cccnc1 (stereo unspecified)	–	inconclusive [activator, single point]
Oc1ccc2ccccc2c1CNc1ccc(Br)cc1	inactive: 7.68%	–
COc1ccc(-c2c[n+]3c4n2CCCCC4=C(c2ccc(Br)cc2)C3)cc1	inactive: -25.8%	–
COC(=O)c1ccc(NC(=S)NCCc2cccc(C)c2)cc1	–	active: 8.91 µM
COc1ccc(OC)c(NC(=O)Cn2ncc3c2-c2ccccc2OC3)c1	–	inconclusive [activator, single point]
Cc1cccc2c(C(=O)N3CCN(c4ccccn4)CC3)cc(-c3cccc(Br)c3)nc12	–	active: 17.8 µM

Structure (SMILES)	growth rescue (activation)	Potency
Cc1c(Cl)cccc1NC(=O)CSc1nc(=O)[nH]c2c1CCCC2	inactive: 17.5%	–
CCCCNC(=S)Nc1ccc(Cl)cc1	–	inconclusive [activator, single point]
O=C(CSc1nnc(-c2ccco2)n1Cc1ccccc1)c1ccccc1	–	inconclusive [activator, partial curve]
NC(=O)COC(=O)CC12CC3CC(CC(C3)C1)C2	–	inconclusive [activator, partial curve]
O=C(CCSc1nnc(-c2ccncc2)o1)Nc1ccc(Cl)cc1	–	inconclusive [activator, single point]
NS(=O)(=O)c1ccc(CNC(=O)c2cnccn2)cc1	–	inconclusive [activator, single point]
COc1cc(CSc2ncc(CO)n2Cc2ccc(C)cc2)cc(OC)c1	inactive: 0.767%	–
O=C(Nc1nnc(-c2ccco2)o1)c1ccc(Cl)cc1	–	inconclusive [activator, single point]
COc1cccc(-c2cn3c(n2)sc2cc(C(=O)NCc4ccccc4F)ccc23)c1	–	inconclusive [activator, partial curve]
COc1cc(NC(=O)c2cc(C)on2)cc(C(=O)Nc2cccc(C(F)(F)F)c2)c1	–	active: 12.6 µM
O=C(Cc1ccccc1)NCCSCc1ccc(Cl)cc1	–	inconclusive [activator, partial curve]
COCCNc1nc(-c2cc(-c3ccccc3)on2)cc(C(C)C)n1	–	active: 15.8 µM
O=C1SCC(c2ccccc2)=NN1Cc1ccccc1	–	inconclusive [activator, partial curve]
O=C1CC2(CCN(C(=O)c3ccc(Br)cc3)CC2)Oc2ccccc21	inactive: -24.1%	–
Cc1ccc(S(=O)(=O)N2CCN(C(=O)CN3CCCSc4ccccc43)CC2)cc1	–	inconclusive [activator, single point]
CC(C)C(c1nnnn1C1CCCCC1)N1CCN(c2ncccn2)CC1 (stereo unspecified)	–	inconclusive [activator, single point]
O=C(CSc1nc2c(c(=O)[nH]1)CCCC2)Nc1ccccc1C(F)(F)F	–	inconclusive [activator, full curve, poor fit]
COC1OC2COC(c3ccccc3)OC2C(=O)C1NC(=O)c1ccccc1 (stereo unspecified)	–	inconclusive [activator, single point]
COc1ccc(-c2cc3c(c4c2ccn4C)C2CCC3O2)cn1 (stereo unspecified)	–	active: 12.6 µM
COc1cccc(/C=C/C(=O)Nc2ccccc2N2CCOCC2)c1	–	active: 22.4 µM
O=[N+]([O-])c1ccc(NCCc2ccccc2)c(Br)c1	–	inconclusive [activator, full curve, poor fit]
Cc1ccc(/C=C/S(=O)(=O)NCC(=O)OCC(=O)Nc2ccc(C(N)=O)cc2)cc1	–	inconclusive [activator, full curve, poor fit]
COc1ccccc1N(CC(O)COc1c(C)cc(C)cc1C)S(=O)(=O)c1ccccc1 (stereo unspecified)	–	active: 17.8 µM
